# The list shows a part of the results. The list includes weakly bound sequences.
# Molecular target: T1, MBP-FoxP3dN (UniProt Q99JB6)
# T1 sequence: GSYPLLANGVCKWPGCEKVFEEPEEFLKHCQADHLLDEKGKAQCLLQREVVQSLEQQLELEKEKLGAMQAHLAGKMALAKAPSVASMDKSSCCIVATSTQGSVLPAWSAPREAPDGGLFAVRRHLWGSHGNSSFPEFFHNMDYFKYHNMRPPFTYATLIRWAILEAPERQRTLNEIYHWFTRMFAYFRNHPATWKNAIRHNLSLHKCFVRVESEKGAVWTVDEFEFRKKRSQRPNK
# Experiment: PD-seq (MBP pull-down with sequencing)
# Conditions: 20 mM Tris-HCl pH 7.5, 100 mM NaCl, 1.5 mM MgCl2, 0.4 uM protein, 0.1 uM dsDNA library, 30 min, room temperature, amylose pull-down; high values mean tight binding; double strand, one strand shown
row,Sequence,binding signal (RPM ratio (pull-down/input))
1,GATGATTGTTCTCCCAGCTGATGAATTTATAACTTCGAGTAAACAAATTTTCCTAATCTTTCTGTTCAAGCGCCATCTAC,0.47
2,GATGATTGTTCTCCCAGCTGATGAATTTCCCCACTCGAGTAAACAAATTTTCCTAATCTTTCTGTTCAAGCGCCATCTAC,0.236
3,GATGATTGTTCTCCCAGCTGATGAATTTCGGAACTCGAGTAAACAAATTTTCCTAATCTTTCTGTTCAAGCGCCATCTAC,0.21
4,GATGATTGTTCTCCCAGCTGATGAATTTAAAGCCTCGAGTAAACAAATTTTCCTAATCTTTCTGTTCAAGCGCCATCTAC,0.421
5,GATGATTGTTCTCCCAGCTGATGAATTACGGTCGTCGAGTAAACAAATTTTCCTAATCTTTCTGTTCAAGCGCCATCTAC,0.576
6,GATGATTGTTCTCCCAGCTGATGAATTTCAATAATCGAGTAAACAAATTTTCCTAATCTTTCTGTTCAAGCGCCATCTAC,0.318
7,GATGATTGTTCTCCCAGCTGATGAATTGTAAGGATCGAGTAAACAAATTTTCCTAATCTTTCTGTTCAAGCGCCATCTAC,0.31
8,GATGATTGTTCTCCCAGCTGATGAATTCTAGATTTCGAGTAAACAAATTTTCCTAATCTTTCTGTTCAAGCGCCATCTAC,0.297
9,GATGATTGTTCTCCCAGCTGATGAATTCTGGCAATCGAGTAAACAAATTTTCCTAATCTTTCTGTTCAAGCGCCATCTAC,2
10,GATGATTGTTCTCCCAGCTGATGAATTCCAGACTTCGAGTAAACAAATTTTCCTAATCTTTCTGTTCAAGCGCCATCTAC,0.319
11,GATGATTGTTCTCCCAGCTGATGAATTTACCGTGTCGAGTAAACAAATTTTCCTAATCTTTCTGTTCAAGCGCCATCTAC,0.613
12,GATGATTGTTCTCCCAGCTGATGAATTAACACTGTCGAGTAAACAAATTTTCCTAATCTTTCTGTTCAAGCGCCATCTAC,0.451
13,GATGATTGTTCTCCCAGCTGATGAATTAGAACTATCGAGTAAACAAATTTTCCTAATCTTTCTGTTCAAGCGCCATCTAC,0.418
14,GATGATTGTTCTCCCAGCTGATGAATTTAGATATTCGAGTAAACAAATTTTCCTAATCTTTCTGTTCAAGCGCCATCTAC,1.13
15,GATGATTGTTCTCCCAGCTGATGAATTGATACGGTCGAGTAAACAAATTTTCCTAATCTTTCTGTTCAAGCGCCATCTAC,1.24
16,GATGATTGTTCTCCCAGCTGATGAATTCGATTTTTCGAGTAAACAAATTTTCCTAATCTTTCTGTTCAAGCGCCATCTAC,1.46
17,GATGATTGTTCTCCCAGCTGATGAATTTAAGTAGTCGAGTAAACAAATTTTCCTAATCTTTCTGTTCAAGCGCCATCTAC,0.466
18,GATGATTGTTCTCCCAGCTGATGAATTGAGAGGTTCGAGTAAACAAATTTTCCTAATCTTTCTGTTCAAGCGCCATCTAC,0.335
19,GATGATTGTTCTCCCAGCTGATGAATTCCTACGATCGAGTAAACAAATTTTCCTAATCTTTCTGTTCAAGCGCCATCTAC,0.26
20,GATGATTGTTCTCCCAGCTGATGAATTTTCGCACTCGAGTAAACAAATTTTCCTAATCTTTCTGTTCAAGCGCCATCTAC,0.504

row,Sequence,binding signal (RPM ratio (pull-down/input))
1,GATGATTGTTCTCCCAGCTGATGAATTACGCCCGTCGAGTAAACAAATTTTCCTAATCTTTCTGTTCAAGCGCCATCTAC,2.14
2,GATGATTGTTCTCCCAGCTGATGAATTTACTTTCTCGAGTAAACAAATTTTCCTAATCTTTCTGTTCAAGCGCCATCTAC,1.32
3,GATGATTGTTCTCCCAGCTGATGAATTAGGTACTTCGAGTAAACAAATTTTCCTAATCTTTCTGTTCAAGCGCCATCTAC,0.467
4,GATGATTGTTCTCCCAGCTGATGAATTGAAATAATCGAGTAAACAAATTTTCCTAATCTTTCTGTTCAAGCGCCATCTAC,0.377
5,GATGATTGTTCTCCCAGCTGATGAATTAACCGACTCGAGTAAACAAATTTTCCTAATCTTTCTGTTCAAGCGCCATCTAC,0.215
6,GATGATTGTTCTCCCAGCTGATGAATTAGTCGCCTCGAGTAAACAAATTTTCCTAATCTTTCTGTTCAAGCGCCATCTAC,0.821
7,GATGATTGTTCTCCCAGCTGATGAATTTAGTCCTTCGAGTAAACAAATTTTCCTAATCTTTCTGTTCAAGCGCCATCTAC,0.502
8,GATGATTGTTCTCCCAGCTGATGAATTATGCCCTTCGAGTAAACAAATTTTCCTAATCTTTCTGTTCAAGCGCCATCTAC,1.87
9,GATGATTGTTCTCCCAGCTGATGAATTGTAAAACTCGAGTAAACAAATTTTCCTAATCTTTCTGTTCAAGCGCCATCTAC,0.26
10,GATGATTGTTCTCCCAGCTGATGAATTTCGAATGTCGAGTAAACAAATTTTCCTAATCTTTCTGTTCAAGCGCCATCTAC,0.813
11,GATGATTGTTCTCCCAGCTGATGAATTATTACTTTCGAGTAAACAAATTTTCCTAATCTTTCTGTTCAAGCGCCATCTAC,0.431
12,GATGATTGTTCTCCCAGCTGATGAATTAAGCGTATCGAGTAAACAAATTTTCCTAATCTTTCTGTTCAAGCGCCATCTAC,1.19
13,GATGATTGTTCTCCCAGCTGATGAATTTAACATGTCGAGTAAACAAATTTTCCTAATCTTTCTGTTCAAGCGCCATCTAC,0.833
14,GATGATTGTTCTCCCAGCTGATGAATTGACTAGTTCGAGTAAACAAATTTTCCTAATCTTTCTGTTCAAGCGCCATCTAC,0.39
15,GATGATTGTTCTCCCAGCTGATGAATTTTACTGATCGAGTAAACAAATTTTCCTAATCTTTCTGTTCAAGCGCCATCTAC,0.442
16,GATGATTGTTCTCCCAGCTGATGAATTACGCCCATCGAGTAAACAAATTTTCCTAATCTTTCTGTTCAAGCGCCATCTAC,1.52
17,GATGATTGTTCTCCCAGCTGATGAATTCAAAGGATCGAGTAAACAAATTTTCCTAATCTTTCTGTTCAAGCGCCATCTAC,0.179
18,GATGATTGTTCTCCCAGCTGATGAATTCAGAACTTCGAGTAAACAAATTTTCCTAATCTTTCTGTTCAAGCGCCATCTAC,0.206
19,GATGATTGTTCTCCCAGCTGATGAATTGAAGATCTCGAGTAAACAAATTTTCCTAATCTTTCTGTTCAAGCGCCATCTAC,0.253
20,GATGATTGTTCTCCCAGCTGATGAATTCATGATCTCGAGTAAACAAATTTTCCTAATCTTTCTGTTCAAGCGCCATCTAC,0.677

# From PMC12820563
